Results taken from the supplement of paper PMC10369915.
This is one part of the list. Rule as the data show it: active = 3.2 or more and inactive = the rest. The signal is at background level for most entries.

Legend:
Test in all cases: enrichment score (SH2-bound / input frequency) (ratio); bacterial display of known human phosphotyrosine sites (pTyr-Var adds point mutants) read by sequencing; higher = stronger binding; tyrosines were phosphorylated by kinases first
Conditions in all cases: peptide library: Human pTyr
SHP2 C-SH2 domain E139D = target: SHP2 C-SH2 domain E139D
[1] = target: SHP2 C-SH2 domain wild-type
SHP2 N-SH2 domain L43F = target: SHP2 N-SH2 domain L43F
SHP2 N-SH2 domain T42A = target: SHP2 N-SH2 domain T42A
SHP2 N-SH2 domain T52S = target: SHP2 N-SH2 domain T52S
[2] = target: SHP2 N-SH2 domain wild-type

Measured: enrichment score
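Also: displayed peptides selected on beads carrying the immobilized SH2 domain, with library peptides lacking any tyrosine serving as negative controls.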

SVTGKAKYTLNDNRL [PLXB1_HUMAN_1732]
inactive: SHP2 C-SH2 domain E139D 1.17 | [1] 0.9 | SHP2 N-SH2 domain L43F 0.972 | SHP2 N-SH2 domain T42A 0.949 | SHP2 N-SH2 domain T52S 1.06 | [2] 1.01

GGPGPRVYFQSPPGA [PP14B_HUMAN_29]
inactive: SHP2 C-SH2 domain E139D 0.831 | [1] 0.71 | SHP2 N-SH2 domain L43F 0.679 | SHP2 N-SH2 domain T42A 1.05 | SHP2 N-SH2 domain T52S 1.06 | [2] 0.934

FAFSGGLYGGLPPTH [PP1R8_HUMAN_264]
inactive: SHP2 C-SH2 domain E139D 0.83 | [1] 0.92 | SHP2 N-SH2 domain L43F 0.952 | SHP2 N-SH2 domain T42A 1.3 | SHP2 N-SH2 domain T52S 0.956 | [2] 0.978

AGPRAEEYEFLTPVE [ARHGDIA_HUMAN_156_YA]
inactive: SHP2 C-SH2 domain E139D 0.927 | [1] 0.589 | SHP2 N-SH2 domain L43F 0.393 | SHP2 N-SH2 domain T42A 0.813 | SHP2 N-SH2 domain T52S 0.741 | [2] 0.805

SSPDDPNYSLVDDAS [PPIP2_HUMAN_323_YA]
inactive: SHP2 C-SH2 domain E139D 0.933 | [1] 0.998 | SHP2 N-SH2 domain L43F 1.18 | SHP2 N-SH2 domain T42A 0.918 | SHP2 N-SH2 domain T52S 1.02 | [2] 1.01

NYSLVDDYSLLYQGG [PPIP2_HUMAN_329]
inactive: SHP2 C-SH2 domain E139D 0.992 | [1] 0.745 | SHP2 N-SH2 domain L43F 0.735 | SHP2 N-SH2 domain T42A 0.596 | SHP2 N-SH2 domain T52S 0.489 | [2] 0.733

NASLVDDYSLLAQGG [PPIP2_HUMAN_329_YA]
inactive: SHP2 C-SH2 domain E139D 0.583 | [1] 0.609 | SHP2 N-SH2 domain L43F 0.562 | SHP2 N-SH2 domain T42A 0.629 | SHP2 N-SH2 domain T52S 0.528 | [2] 0.515

AFLKAWVYRPGEDTE [PR15A_HUMAN_434]
inactive: SHP2 C-SH2 domain E139D 0.935 | [1] 0.715 | SHP2 N-SH2 domain L43F 0.645 | SHP2 N-SH2 domain T42A 0.58 | SHP2 N-SH2 domain T52S 0.798 | [2] 0.916

TRSEGSEYEEIPKRR [PRC2A_HUMAN_1094]
inactive: SHP2 C-SH2 domain E139D 0.691 | [1] 0.882 | SHP2 N-SH2 domain L43F 1.29 | SHP2 N-SH2 domain T42A 0.665 | SHP2 N-SH2 domain T52S 0.558 | [2] 0.837

WSKDINAYNCEEPTE [PRDX6_HUMAN_89]
inactive: SHP2 C-SH2 domain E139D 0.969 | [1] 0.905 | SHP2 N-SH2 domain L43F 0.969 | SHP2 N-SH2 domain T42A 1.04 | SHP2 N-SH2 domain T52S 1.52 | [2] 0.974

NRPPPNAYELFAKGY [PRMT5_HUMAN_297]
inactive: SHP2 C-SH2 domain E139D 1.17 | [1] 1.09 | SHP2 N-SH2 domain L43F 1.04 | SHP2 N-SH2 domain T42A 0.918 | SHP2 N-SH2 domain T52S 1.18 | [2] 1.28

GYHKDHVYGIHNPVM [PROM1_HUMAN_852]
inactive: SHP2 C-SH2 domain E139D 0.824 | [1] 0.786 | SHP2 N-SH2 domain L43F 0.881 | SHP2 N-SH2 domain T42A 0.634 | SHP2 N-SH2 domain T52S 1 | [2] 0.751

GAHKDHVYGIHNPVM [PROM1_HUMAN_852_YA]
inactive: SHP2 C-SH2 domain E139D 0.814 | [1] 0.64 | SHP2 N-SH2 domain L43F 0.592 | SHP2 N-SH2 domain T42A 0.671 | SHP2 N-SH2 domain T52S 0.582 | [2] 0.99

YGPRPEEYEFLTPVE [ARHGDIB_HUMAN_153]
inactive: SHP2 C-SH2 domain E139D 1.38 | [1] 1.28 | SHP2 N-SH2 domain L43F 1.22 | SHP2 N-SH2 domain T42A 0.842 | SHP2 N-SH2 domain T52S 1.08 | [2] 1.74

MGLILQGYESGSEEE [PRP4B_HUMAN_140]
inactive: SHP2 C-SH2 domain E139D 1.24 | [1] 0.74 | SHP2 N-SH2 domain L43F 1.06 | SHP2 N-SH2 domain T42A 1.17 | SHP2 N-SH2 domain T52S 1.26 | [2] 1.18

GKLVQIEYALAAVAG [PSA2_HUMAN_24]
inactive: SHP2 C-SH2 domain E139D 0.858 | [1] 0.883 | SHP2 N-SH2 domain L43F 0.816 | SHP2 N-SH2 domain T42A 0.797 | SHP2 N-SH2 domain T52S 1.14 | [2] 0.958

TKHIGLVYSGMGPDY [PSA2_HUMAN_76]
inactive: SHP2 C-SH2 domain E139D 0.946 | [1] 0.932 | SHP2 N-SH2 domain L43F 0.946 | SHP2 N-SH2 domain T42A 0.955 | SHP2 N-SH2 domain T52S 1.03 | [2] 1.33

TKHIGLVYSGMGPDA [PSA2_HUMAN_76_YA]
inactive: SHP2 C-SH2 domain E139D 0.734 | [1] 0.603 | SHP2 N-SH2 domain L43F 0.544 | SHP2 N-SH2 domain T42A 0.58 | SHP2 N-SH2 domain T52S 0.97 | [2] 0.762

AGPRPEEYEFLTPVE [ARHGDIB_HUMAN_153_YA]
inactive: SHP2 C-SH2 domain E139D 1.93 | [1] 1.73 | SHP2 N-SH2 domain L43F 1.41 | SHP2 N-SH2 domain T42A 1.24 | SHP2 N-SH2 domain T52S 1.58 | [2] 1.15

VFNMLKKYVRAEQKD [A4_HUMAN_497]
inactive: SHP2 C-SH2 domain E139D 1.79 | [1] 1.48 | SHP2 N-SH2 domain L43F 1.36 | SHP2 N-SH2 domain T42A 1.46 | SHP2 N-SH2 domain T52S 1.61 | [2] 1.89

EDPVTVEYITRAIAS [PSMA7_HUMAN_106_YA]
inactive: SHP2 C-SH2 domain E139D 0.648 | [1] 0.531 | SHP2 N-SH2 domain L43F 0.537 | SHP2 N-SH2 domain T42A 0.548 | SHP2 N-SH2 domain T52S 0.776 | [2] 0.74

VLRGQPIYIQFSNHK [PTBP1_HUMAN_127]
active: [2] 4.07
inactive: SHP2 C-SH2 domain E139D 2.48 | [1] 2.51 | SHP2 N-SH2 domain L43F 2.48 | SHP2 N-SH2 domain T42A 2.86 | SHP2 N-SH2 domain T52S 2.72

AQEALDFYGEVRTRD [PTEN_HUMAN_155]
inactive: SHP2 C-SH2 domain E139D 0.787 | [1] 0.692 | SHP2 N-SH2 domain L43F 0.705 | SHP2 N-SH2 domain T42A 0.646 | SHP2 N-SH2 domain T52S 0.618 | [2] 0.795

TIPSQRRYVYYYSYL [PTEN_HUMAN_174]
inactive: SHP2 C-SH2 domain E139D 2.31 | [1] 2.74 | SHP2 N-SH2 domain L43F 1.93 | SHP2 N-SH2 domain T42A 2.36 | SHP2 N-SH2 domain T52S 3.08 | [2] 2.32

DIVDEAIYYFKANVF [ARPC3_HUMAN_47]
inactive: SHP2 C-SH2 domain E139D 1.86 | [1] 1.65 | SHP2 N-SH2 domain L43F 1.52 | SHP2 N-SH2 domain T42A 1.59 | SHP2 N-SH2 domain T52S 1.86 | [2] 1.83

NKDKANRYFSPNFKV [PTEN_HUMAN_336]
inactive: SHP2 C-SH2 domain E139D 1.33 | [1] 1.35 | SHP2 N-SH2 domain L43F 1.24 | SHP2 N-SH2 domain T42A 1.06 | SHP2 N-SH2 domain T52S 1.24 | [2] 1.62

SDNEPDHYRYSDTTD [PTEN_HUMAN_377]
inactive: SHP2 C-SH2 domain E139D 0.841 | [1] 0.743 | SHP2 N-SH2 domain L43F 0.8 | SHP2 N-SH2 domain T42A 0.756 | SHP2 N-SH2 domain T52S 0.769 | [2] 1.14

SDNEPDHYRASDTTD [PTEN_HUMAN_377_YA]
inactive: SHP2 C-SH2 domain E139D 0.808 | [1] 0.784 | SHP2 N-SH2 domain L43F 1.03 | SHP2 N-SH2 domain T42A 1.01 | SHP2 N-SH2 domain T52S 0.99 | [2] 0.933

DQSRQMKYQSFNEYR [PTGS2_HUMAN_446]
inactive: SHP2 C-SH2 domain E139D 0.695 | [1] 0.607 | SHP2 N-SH2 domain L43F 0.735 | SHP2 N-SH2 domain T42A 0.6 | SHP2 N-SH2 domain T52S 0.892 | [2] 0.788

KMKLAQQYVMTSLQQ [PTK2_HUMAN_1007]
inactive: SHP2 C-SH2 domain E139D 1.53 | [1] 1.34 | SHP2 N-SH2 domain L43F 1.25 | SHP2 N-SH2 domain T42A 1.27 | SHP2 N-SH2 domain T52S 1.21 | [2] 1.82

DIVDEAIYAFKANVF [ARPC3_HUMAN_47_YA]
inactive: SHP2 C-SH2 domain E139D 1.26 | [1] 0.999 | SHP2 N-SH2 domain L43F 1 | SHP2 N-SH2 domain T42A 1.05 | SHP2 N-SH2 domain T52S 1.09 | [2] 1.13

SHDHNIPYKWTAPEA [PTK6_HUMAN_351]
inactive: SHP2 C-SH2 domain E139D 0.826 | [1] 0.727 | SHP2 N-SH2 domain L43F 0.715 | SHP2 N-SH2 domain T42A 0.958 | SHP2 N-SH2 domain T52S 0.643 | [2] 0.723

GGAVAQGYVPHNALA [PTK6_HUMAN_61_YA]
inactive: SHP2 C-SH2 domain E139D 0.608 | [1] 0.498 | SHP2 N-SH2 domain L43F 0.592 | SHP2 N-SH2 domain T42A 0.521 | SHP2 N-SH2 domain T52S 0.54 | [2] 0.63

VVLVDPEYLKERRVY [ARRB1_HUMAN_47]
inactive: SHP2 C-SH2 domain E139D 0.972 | [1] 0.538 | SHP2 N-SH2 domain L43F 0.548 | SHP2 N-SH2 domain T42A 0.548 | SHP2 N-SH2 domain T52S 0.483 | [2] 0.592

SKRKGHEYTNIKASL [PTN11_HUMAN_546_YA]
inactive: SHP2 C-SH2 domain E139D 2.69 | [1] 3.09 | SHP2 N-SH2 domain L43F 3.04 | SHP2 N-SH2 domain T42A 2.78
active: SHP2 N-SH2 domain T52S 3.3 | [2] 3.61

KIQNTGDYYDLYGGE [PTN11_HUMAN_62]
inactive: SHP2 C-SH2 domain E139D 0.718 | [1] 0.706 | SHP2 N-SH2 domain L43F 0.726 | SHP2 N-SH2 domain T42A 0.737 | SHP2 N-SH2 domain T52S 0.69 | [2] 0.77
